Test results published in PubChem BioAssay AID624202 (National Center for Advancing Translational Sciences (NCATS), 2012).
Hit rate of the full screen: of about 380,000 compounds, about 4,000 (1.1%) were called active. The shares of active, inactive and inconclusive entries below differ from those in the screen. The call rests on the fitted dose curve; in most records, active means well fitted activation curve with a large enough effect; inconclusive means small, poorly fitted or top-dose-only effect; inactive means no such curve, though single readings can be large or run the other way. A potency beside an inconclusive call is a rough fit, not a confirmed value.

Assay: qHTS Assay to Identify Small Molecule Activators of BRCA1 Expression; further: nearly all actives have a fitted effect of over 80% in size
Conditions: MCF7-BRCA1-FFLuc reporter, luminescence, 48 h; activation: at 46.1 µM (top of the series), scaled: vehicle 0%, 10 µM genistein 100% unless noted
How it was run: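 48 h compound treatment of MCF7-BRCA1-FFLuc cells (phenol-red free MEM, 37 °C), then 15 min with luciferase substrate and luminescence imaging.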
Potency means the concentration at half of the fitted maximal effect; tags describe the fitted curve by direction and shape.

SMILES | Potency | activation
O=C1SC(SC(=Nc2ccccc2)Nc2ccccc2)C(=O)N1c1ccccc1 (configuration not stated) | inconclusive: 35.5 µM [activator, single point] | –
O=C(c1ccc(-n2cccn2)cc1)N1CCc2ccccc2C1 | inconclusive: 12.6 µM [activator, partial curve, poor fit] | –
COc1ccccc1-c1cc2nc(-c3ccccc3)cc(N3CCN(C(=O)c4ccoc4)CC3)n2n1 | – | inactive: -59.3%
CCn1nccc1C(=O)Nc1ccc(Cl)cc1Cl | active: 10 µM | –
N#Cc1ccc(NC(=O)C2=COCCO2)cc1 | inconclusive: 3.98 µM [activator, partial curve, poor fit] | –
Cc1cc(=O)oc2cc(NC(=O)c3ccnn3C)ccc12 | inconclusive: 8.91 µM [activator, partial curve, poor fit] | –
CN(C)c1ccc(Nc2nc(N)c([N+](=O)[O-])c(N3CCOCC3)n2)cc1 | – | inactive: -11%
O=C(/C=C/Nc1ccc(F)cc1Br)c1ccccc1 | – | inactive: -45.8%
COc1cc(C2Nc3ccccc3C(=O)N2c2ccc(Cl)cc2)c(Cl)cc1OCC(=O)O (configuration not stated) | active: 2.82 µM | –
Cc1cccc(NC(=O)c2ccc3c(Cl)c4c(nc3c2)CCCC4)n1 | inconclusive: 1.58 µM [activator, partial curve, poor fit] | –
O=C(Nc1ccc(N2CCCCC2)cc1)c1ccc(F)cc1F | – | inconclusive: 74.3% [activator]
Cc1ccc(C(=O)/C=C2\NCC(C)NC2=O)cc1 (configuration not stated) | – | inconclusive: -56% [activator]
O=C1S/C(=C\c2cccs2)C(=O)N1c1ccc(O)cc1 | active: 11.2 µM | –
CCCCn1c(=O)[nH]c2nc3cc(N)ccc3nc2c1=O | inconclusive: 20 µM [activator, partial curve, poor fit] | –
Cc1nc(NC(=O)CCc2ccccc2)ccc1Br | inconclusive: 10 µM [activator, partial curve, poor fit] | –
C=CCSc1nnc(NC(=O)c2ccc3c(c2)OCCO3)s1 | inconclusive: 1 µM [activator, full curve, poor fit] | –
Cc1nc(N)sc1-c1csc(Nc2ncccn2)n1 | inconclusive: 8.91 µM [activator, partial curve, poor fit] | –
Cc1cc(CN(C)C(=O)c2ccc(OC3CCN(CCc4ccccc4)CC3)cc2)on1 | – | inactive: -18.7%
S=C(c1ccccc1)N1CCN(c2ccccc2)CC1 | – | inactive: -2.3%
CCCNC(=O)C1CC(=O)N(c2ccc(OCc3ccc(F)cc3)cc2)C1 (configuration not stated) | inconclusive: 10 µM [activator, partial curve, poor fit] | –
CN1CCN/C1=C(/C(Cl)=C(Cl)Cl)[N+](=O)[O-] | inconclusive: 1.58 µM [activator, partial curve, poor fit] | –
CCC(=O)Nc1cccc(NC(=O)c2cccc([N+](=O)[O-])c2C)c1 | – | inactive: -5.83%
O=[N+]([O-])c1cc(/C=N/O)ccc1Oc1cccc(Cl)c1 | – | inactive: -3.22%
O=c1c2ccccc2oc2ncccc12 | active: 12.6 µM | –
CCOc1ccc(N/C=C\C(=O)c2ccc3c(c2)OCO3)cc1 | active: 4.47 µM | –
C=CCn1c(CCNC(=O)c2ccc(Cl)c(Cl)c2)nnc1SCCOc1ccc(OC)cc1 | – | inactive: -51.1%

SMILES | Potency | activation
Cc1ccccc1OCCNC(=O)c1ccc2ccccc2n1 | inconclusive: 11.2 µM [activator, partial curve, poor fit] | –
Cc1ccc2c(cnn2C(=O)CCCC(=O)NC(C)c2ccccc2)c1 (configuration not stated) | active: 2.51 µM | –
Cc1ccc(-c2csc(Nc3ccc(S(N)(=O)=O)cc3)n2)o1 | inconclusive: 31.6 µM [activator, single point] | –
Cc1csc(NC(=O)c2cc3c(s2)CCCC3)n1 | inconclusive: 2.51 µM [activator, partial curve, poor fit] | –
O=C(CCS(=O)(=O)c1ccccc1)NC1CCCC1 | active: 10 µM | –
Cc1ccc(-c2cc(C(=O)N3CCCc4ccccc43)no2)cc1 | active: 3.16 µM | –
Cc1ccc(C(=O)Nc2ccc(N3CCCCC3)cc2)cc1 | inconclusive: 1.26 µM [activator, partial curve, poor fit] | –
Cc1ccc(C(=O)Nc2ccc3c(c2)OCCO3)c(C)c1 | – | inconclusive: -88.9% [activator]
Cc1nc2ccc(NC(=O)Cc3cccs3)cc2s1 | active: 3.55 µM | –
O=C(CCCN1C(=O)/C(=C/c2ccccc2Cl)SC1=S)NNC(=O)c1ccncc1 | – | inactive: 0%
Cc1cc2nc(/C=C/c3cccnc3)[nH]c2cc1C | inconclusive: 0.501 µM [activator, full curve, poor fit] | –
O=C(CC(=O)c1ccccc1)Nc1ccc([N+](=O)[O-])cc1 | inconclusive: 35.5 µM [activator, single point] | –
Cc1ccc(NC(=O)C2CC2c2ccccc2)c([N+](=O)[O-])c1 (configuration not stated) | inconclusive: 35.5 µM [activator, single point] | –
Clc1ccc(-c2csc(N3CCOCC3)n2)cc1 | active: 7.08 µM | –
CCOc1cc(S(=O)(=O)NCc2ccc(OC)cc2)c(OCC)cc1-n1cnnn1 | – | inactive: -71.2%
Cc1cccc(NC(=O)c2ccc3c(c2)OCCO3)c1 | inconclusive: 0.794 µM [activator, full curve, poor fit] | –
COc1ccc(NC(=O)c2ccc(OC)cc2)cc1 | inconclusive: 1.26 µM [activator, full curve, poor fit] | –
CCOC(=O)/C=C/[C@H]1CC2(CCO1)SCCCS2 | inconclusive: 10 µM [activator, partial curve, poor fit] | –
Cc1ccccc1NC(=O)CSc1nc2ccccc2o1 | active: 12.6 µM | –
Cc1nc(Nc2ccccc2O)c2oc3ccccc3c2n1 | – | inactive: -44.1%
COc1ccc2c(c1)CC/C(=C/c1ccccn1)C2=O | active: 12.6 µM | –
COc1ccccc1N1CCN(/N=C/c2cccc(Cl)c2)CC1 | inconclusive: 8.91 µM [activator, partial curve, poor fit] | –
Cc1ccc2[nH]c(-c3cccc(N)c3)cc2c1 | inconclusive: 6.31 µM [activator, partial curve, poor fit] | –
Cc1ccc(NC(=O)ON=C2CCCC2)cc1 | inconclusive: 7.08 µM [activator, full curve, poor fit] | –
Nc1ccc(O)c2c1C(=O)c1ccccc1C2=O | inconclusive: 11.2 µM [activator, partial curve, poor fit] | –
Cc1ccc(NC(=O)N2CCc3ccccc32)cc1 | – | inactive: -9.75%

SMILES | Potency | activation
O=C(CCCc1ccccc1)NCCc1ccccc1 | inconclusive: 11.2 µM [activator, partial curve, poor fit] | –
COc1cc(C(C)=O)ccc1OCC(O)CN1CCN(c2cc(C)cc(C)c2)CC1 (configuration not stated) | – | inactive: -25.1%
CCC(=O)c1ccc(OCc2ccccc2)c(OC)c1 | active: 6.31 µM | –
O=C(COc1ccc(C2SCCS2)cc1)NNC(=O)C(Cl)Cl | inconclusive: 7.08 µM [activator, full curve, poor fit] | –
Cc1ccc(NC(=O)n2ncc3c(C)cccc32)c(C)c1 | inconclusive: 0.891 µM [activator, full curve, poor fit] | –
COc1cc(SC)ccc1C(=O)Nc1ccccn1 | inconclusive: 0.631 µM [activator, full curve, poor fit] | –
O=C(NCCc1ccc(F)cc1)Nc1ccc2c(c1)OCO2 | active: 12.6 µM | –
COc1ccccc1/C=C/C(=O)NNC(=O)c1cccs1 | inconclusive: 11.2 µM [activator, partial curve, poor fit] | –
CC(=O)Oc1ccc2ccccc2c1C(NC(=O)Cc1ccccc1)c1ccccc1Cl (configuration not stated) | – | inactive: -64.7%
CCCC(=O)N1CCCC(C(=O)c2cccc(OC(C)C)c2)C1 (configuration not stated) | inconclusive: 11.2 µM [activator, partial curve, poor fit] | –
O=c1c2ccccc2nnn1-c1ccc(Br)cc1 | active: 4.47 µM | –
O=C(Nc1nc(-c2ccco2)cs1)c1ccccc1 | active: 8.91 µM | –
COc1cc([C@@H]2c3cc4c(cc3[C@H](O)[C@H]3COC(=O)[C@H]23)OCO4)cc(OC)c1OC | – | inconclusive: -65.8% [activator]
CCCn1nnc(NC(=O)c2ccc3ccccc3c2)n1 | inconclusive: 12.6 µM [activator, partial curve, poor fit] | –
COC(=O)C1CCN(C(=O)c2oc3c(Cl)cc(C)cc3c2C)CC1 | inconclusive: 0.631 µM [activator, full curve, poor fit] | –
Cc1cc(NC(=O)c2ccc3c(c2)OCCO3)ccc1NC(=O)c1ccco1 | inconclusive: 1.26 µM [activator, full curve, poor fit] | –
CN(Cc1nc2ccccc2c(=O)[nH]1)Cc1nc2ccsc2c(=O)[nH]1 | – | inactive: -16.3%
CC(C)NC(=O)N1CCC(n2nccc2NC(=O)CCOc2ccccc2)CC1 | – | inactive: 9.36%
Fc1ccccc1COc1ccc(C(=S)N2CCCC2)cc1 | active: 11.2 µM | –
CCN(CC)c1ccc(/C=C(\C#N)c2ccccn2)cc1 | – | inconclusive: -52.5% [activator]
COc1ccc(C(=O)/C=C(\C)Nc2ccc(NC(C)=O)cc2)cc1 | inconclusive: 14.1 µM [activator, partial curve, poor fit] | –
Nc1ccc(N=Nc2ccccc2Cl)c(N)n1 | active: 3.55 µM | –
CCc1ccc2c(c1)NC(=O)C2(C)Cc1ccc(Cl)s1 (configuration not stated) | – | inactive: -37.1%
O=C(C[n+]1cc(-c2ccc(F)cc2)n2c1CCC2)c1cccs1 | active: 2 µM | –
COc1ccc2cc(-c3cccnc3)ncc2c1 | inconclusive: 3.16 µM [activator, partial curve, poor fit] | –
